In US20160137740A1 (AstraZeneca / MedImmune, published 2016):

Experiments:
Human OX40 [1] = target: T1, Human OX40 (human, UniProt P43489 29-277); assay: flow cytometry on human OX40-overexpressing Jurkat NFkB-luciferase clone 64 cells, AlexaFluor 647 anti-human IgG secondary [panel A]
T1 construct: also called CD134; TNFRSF4
T1 sequence: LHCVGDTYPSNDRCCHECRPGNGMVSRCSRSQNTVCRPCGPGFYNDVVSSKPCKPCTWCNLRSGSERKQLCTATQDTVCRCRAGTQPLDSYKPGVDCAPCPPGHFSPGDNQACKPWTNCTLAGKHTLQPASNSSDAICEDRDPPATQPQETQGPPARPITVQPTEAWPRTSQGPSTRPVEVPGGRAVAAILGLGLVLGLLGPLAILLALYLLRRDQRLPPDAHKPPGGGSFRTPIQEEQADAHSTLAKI
Protocol: Human OX40-overexpressing Jurkat NFκB-luciferase clone 64 cells were cultured in complete RPMI+10% FBS prior to binding experiments, without the need for activation.
OX40mAb24 (10 μg/mL) or 9B12 (10 μg/mL) was diluted over a 17 point 2-fold dilution series. OX40mAb24 was added to 100,000 cells (activated primary CD4⁺ T cells or human OX40-overexpressing Jurkat NFkB-luciferase clone 64 cells) per well and incubated for one hour at 4° C. For background binding subtraction, cells were incubated in the presence of secondary antibody alone. […] Following secondary antibody incubation, cells were washed and suspended in 100 μL FACS buffer for flow cytometry analysis on a BD LSRII flow cytometer as described below.

Human OX40 [2] = target: T1, Human OX40; assay: cell-based or functional assay
[3] = target: T2, KO_CRD3 (human OX40 aa 108 to 146 replaced with the mouse counterparts) (human; mouse, UniProt P43489 29-277); assay: flow cytometry, transfected 293F cells, column KO_CRD3
T2 construct: Chimeric variant with a transmembrane domain, transient on 293F cells
T2 chain: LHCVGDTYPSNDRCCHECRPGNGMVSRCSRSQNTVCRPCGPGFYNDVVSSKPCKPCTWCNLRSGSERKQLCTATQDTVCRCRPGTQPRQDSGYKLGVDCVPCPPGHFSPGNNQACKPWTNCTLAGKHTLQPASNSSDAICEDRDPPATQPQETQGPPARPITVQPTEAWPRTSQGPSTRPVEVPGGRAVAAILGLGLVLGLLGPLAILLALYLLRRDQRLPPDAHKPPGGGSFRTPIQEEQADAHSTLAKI

[4] = target: T3, Human TNFRSF16 (NGFR) expressed on HEK293 cells (human, UniProt P08138 29-427); assay: flow cytometry histogram, transiently transfected HEK293 cells, goat anti-human AlexaFluor 647 secondary [panel A]
T3 construct: whole, on cells; also called NGF receptor
T3 sequence (looked up): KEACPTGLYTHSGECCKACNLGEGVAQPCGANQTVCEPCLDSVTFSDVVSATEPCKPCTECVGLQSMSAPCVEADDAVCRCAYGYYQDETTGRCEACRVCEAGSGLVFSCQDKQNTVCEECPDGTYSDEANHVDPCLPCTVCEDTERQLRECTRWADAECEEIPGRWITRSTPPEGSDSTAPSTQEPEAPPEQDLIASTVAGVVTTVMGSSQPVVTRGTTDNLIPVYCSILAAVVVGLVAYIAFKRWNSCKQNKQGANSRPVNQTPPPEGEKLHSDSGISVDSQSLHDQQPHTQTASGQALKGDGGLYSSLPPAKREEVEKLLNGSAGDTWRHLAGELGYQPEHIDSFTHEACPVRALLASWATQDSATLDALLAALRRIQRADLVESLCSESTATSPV
Source text: cDNA constructs capable of directing the expression of individual TNFRSF members, when transfected into mammalian cells, were obtained from Origene Technologies, Rockville, Md. These cDNA constructs were amplified and purified by the Protein Sciences group at MedImmune in Gaithersburg, Md. for use in transient transfections. […] Forty-eight hours post transfection, cells were removed from tissue culture plates by trypsinization. […] Cells were then suspended in cold FACS buffer (PBS+2% FBS) and plated into 96 well non-tissue culture-treated plates for binding studies with TNFRSF member-specific mAbs (Table 3-3) and OX40mAb24.
For binding of antibodies or OX40mAb24, HEK cells were pelleted, FACS buffer removed, and cells suspended in FACS buffer containing 2 μg/mL propidium iodide (PI) and either a fluorochrome-labeled mAb, specific for the transfected TNFRSF member, at a concentration recommended by the manufacturer or with OX40mAb24 at a concentration of 1 μg/mL. For binding controls, cells were separately incubated with fluorochrome-labeled isotype control antibodies. […] Thereafter, cells incubated with fluorochrome-labeled monoclonal antibodies were washed in cold FACS buffer and then binding events collected and analyzed by flow cytometry using an LSRII flow cytometer (BD Biosciences, San Jose, Calif.) and FlowJo software, as described in Section 3.2.3. […]

Human OX40 [5] = target: T1, Human OX40; assay: cell-based or functional assay; remark: listed apart in the source
Human OX40 [6] = target: T1, Human OX40; assay: cell-based or functional assay; remark: listed apart in the source

B1: OX40mAb24 (antibody, human IgG1, kappa)
heavy: QVQLQESGPGLVKPSQTLSLTCAVYGGSFSSGYWNWIRKHPGKGLEYIGYISYNGITYHNPSLKSRITINRDTSKNQYSLQLNSVTPEDTAVYYCARYKYDYDGGHAMDYWGQGTLVTVSSASTKGPSVFPLAPSSKSTSGGTAALGCLVKDYFPEPVTVSWNSGALTSGVHTFPAVLQSSGLYSLSSVVTVPSSSLGTQTYICNVNHKPSNTKVDKRV[skipping human IgG1 Fc]
light: DIQMTQSPSSLSASVGDRVTITCRASQDISNYLNWYQQKPGKAPKLLIYYTSKLHSGVPSRFSGSGSGTDYTLTISSLQPEDFATYYCQQGSALPWTFGQGTKVEIKRTVAAPSVFIFPPSDEQLKSGTASVVCLLNNFYPREAKVQWKVDNALQSGNSQESVTEQDSKDSTYSLSSTLTLSKADYEKHKVYACEVTHQGLSSPVTKSFNRGEC
notes: Humanized from 9B12; human IgG1 kappa; also called humanized anti-human OX40 IgG1κ monoclonal antibody
For B1, the “EC50 (read off the curve)” value (Human OX40 [1]) was about 0.5 nM, the “EC50, NK cell ADCC, exp 3, donor 363” value (Human OX40 [2]) was 2.38 nM and the “EC50, NK cell ADCC, exp 3, donor 504” value (Human OX40 [2]) was 1.37 nM. For the same binder, the “EC50, NK cell ADCC, exp 4, donor 464” value (Human OX40 [2]) was 3.05 nM, the “EC50, NK cell ADCC, exp 4, donor 532” value (Human OX40 [2]) was 1.31 nM and the “EC50, NK cell ADCC, exp 5, donor 601” value (Human OX40 [2]) was 0.501 nM. The “EC50, NK cell ADCC, exp 5, donor 602” value (Human OX40 [2]) was 0.527 nM, the binding result [3] was “no binding (tested: 1 µg/mL)” and the binding result [4] was “no binding (tested: 1 µg/mL)”. The “EC50, CD4+ T cell proliferation, donor 367” value (Human OX40 [5]) was 0.038 nM, the “EC50, CD4+ T cell proliferation, donor 645” value (Human OX40 [5]) was 0.0083 nM and the “EC50, CD4+ T cell proliferation, donor 651” value (Human OX40 [5]) was 0.016 nM. The “EC50, CD4+ T cell proliferation, donor 661” value (Human OX40 [5]) was 0.051 nM, the “EC50, IFNγ release, donor 367” value (Human OX40 [6]) was 0.0572 nM and the “EC50, IFNγ release, donor 645” value (Human OX40 [6]) was 0.0582 nM. The “EC50, IFNγ release, donor 651” value (Human OX40 [6]) was 0.0774 nM.
